This note sets out measurements from the supplement of paper PMC6135742.

Structures can show the parent of a compound that is named as a salt. ± gives the standard deviation of the averaged measurements. Over roughly 2,600 compounds, “MBP+ mature oligodendrocyte number relative to DMSO vehicle control” has its median near -0.34; the highest 2% begin near 13. The list shows a part of the results.
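Note: 10 µM single dose with 3-day oligodendrocyte differentiation.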

In this assay the test system is jimpy (Plp1 jimpy) mouse iPSC-derived oligodendrocyte progenitor cells. The assay is described as follows: MBP+ mature oligodendrocyte number relative to DMSO vehicle control (SDs above negative control mean); higher = more surviving jimpy oligodendrocytes (rescue). Conditions: 10 µM; 3 days.
`Cc1c(OCC(F)(F)F)ccnc1C[S+]([O-])c1nc2ccccc2[nH]1` (stereo not drawn) [Lansoprazole]: the “MBP+ mature oligodendrocyte number” value came out at 7.5 ± 4.5.
In the case of `CC[C@@H]1C(=O)N(C)c2cnc(Nc3ccc(C(=O)NC4CCN(C)CC4)cc3OC)nc2N1C1CCCC1` it was under -6.7.
Take `Cn1c(=O)c2c(ncn2C)n(C)c1=O` [Caffeine]: the “MBP+ mature oligodendrocyte number” value was -1.45.
`COc1ccccc1CNCCCCCCNCCCCCCCCNCCCCCCNCc1ccccc1OC` [Methoctramine tetrahydrochloride]: the “MBP+ mature oligodendrocyte number” value is -3.58.
In the case of `CC(C)c1noc(N2CCC(COc3ccc(-c4ccc(S(C)(=O)=O)cc4)nc3)CC2)n1` it was 0.563; in that of `O=C(NC1CCNCC1)c1n[nH]cc1NC(=O)c1c(Cl)cccc1Cl`, under -5.15.
For `CC[C@H](Nc1ncnc2[nH]cnc12)c1nc2cccc(F)c2c(=O)n1-c1ccccc1` [CAL-101 (Idelalisib, GS-1101)] the value was -4.53.
For `COc1cc2c[n+](C)c3c4cc5c(cc4ccc3c2cc1OC)OCO5` [Nitidine chloride], the “MBP+ mature oligodendrocyte number” value is under -4.47.
In the case of `CN(C)[C@@H](CCOc1cccc2ccccc12)c1ccccc1` [Dapoxetine HCl] it was under -5.15.
In the case of `CN(C)CCCC1(c2ccc(F)cc2)OCc2cc(C#N)ccc21` (stereo not drawn) [Citalopram hydrobromide] it was -0.59; in that of `Nn1nnc2ccccc21` [1-Aminobenzotriazole], -0.197; in that of `CCCC(CCC)C(=O)O` [Valproic acid sodium salt (Sodium valproate)], 0.72.
For `CCCC(CCC)C(=O)O` [Divalproex Sodium] the value was 2.05.
On to `CCCC(CCC)C(=O)O` [Valproic acid sodium], for which the “MBP+ mature oligodendrocyte number” value was 0.147.
In the case of `CN1Cc2sccc2C(c2ccc(O)c(O)c2)C1` (stereo not drawn) it was -0.511; in that of `COc1ccccc1N1CCN(CCN2C(=O)CC3(CCCC3)CC2=O)CC1` [BMY 7378 dihydrochloride], -1.22.
As for `COc1ccccc1N1CCN(CCN2C(=O)CC3(CCCC3)CC2=O)CC1`, the “MBP+ mature oligodendrocyte number” value was -0.213.
For `OCC(O)CN1CCN(c2ccccc2)CC1` (stereo not drawn) [Dropropizine] the value was 3.19; for `C[C@H](O)C(=O)C1=Nc2c(nc(N)[nH]c2=O)NC1` [Sepiapterin], -1.5; for `CN(CCCOc1ccc(Cc2ccccc2)cc1)CCC(=O)O`, 0.896.
For `CC(C)(C)c1cc(/C=C(\C#N)C(N)=S)cc(C(C)(C)C)c1O` [Tyrphostin AG 879] the value was 2.54 ± 2.2.
As to `CCC(=O)NCC[C@@H]1CCc2ccc3c(c21)CCO3` [Ramelteon], the “MBP+ mature oligodendrocyte number” value is 1.77.
For `COC1=CC(=O)C[C@@H](C)[C@]12Oc1c(Cl)c(OC)cc(OC)c1C2=O` [Griseofulvin] the value was -1.37.
In the case of `O=S(=O)(NCCNC/C=C/c1ccc(Br)cc1)c1cccc2cnccc12` it was -3.89.
For `O[C@@H](COc1cccc2ncccc12)CN1CCN(C2c3ccccc3[C@@H]3[C@H](c4ccccc42)C3(F)F)CC1` (stereo partly drawn), the “MBP+ mature oligodendrocyte number” value is under -6.7.
In the case of `COc1ccc(-c2coc3cc(O)cc(O)c3c2=O)cc1` [Biochanin A] it was 1.74; in that of `CNCc1ccc(-c2[nH]c3cc(F)cc4c3c2CCNC4=O)cc1`, 3.34; in that of `CCCNC(C)C(=O)Nc1c(C)csc1C(=O)OC` (stereo not drawn) [Articaine HCl], 12.
For `CCNC(=O)c1noc(-c2cc(C(C)C)c(O)cc2O)c1-c1ccc(CN2CCOCC2)cc1` the value was under -6.7; for `CC(=O)C1=C(O)C=C2Oc3c(C(C)=O)c(O)c(C)c(O)c3C2(C)C1=O` (single isomer, unassigned; (+)) [(+)-Usniacin], 2.86; for `Cc1cnc(-c2cnc(NCCNc3ccc(C#N)cn3)nc2-c2ccc(Cl)cc2Cl)[nH]1`, -5.53.
As for `O=C(O)c1cc2cccc([N+](=O)[O-])c2[nH]1`, the “MBP+ mature oligodendrocyte number” value was found to be 1.41.
Turning to `COc1ccc(CCc2nc3cc(-c4c(C)noc4C)ccc3n2C[C@H](C)N2CCOCC2)cc1Cl`, the “MBP+ mature oligodendrocyte number” value was under -6.35.
In the case of `Cc1c(NC(=O)OC[C@@H]2COCCN2)cn2ncnc(Nc3ccc4c(cnn4Cc4cccc(F)c4)c3)c12` it was -6.
In the case of `Cc1ccc2nc(NCCN)c3ncc(C)n3c2c1` it was -4.64; in that of `N[C@@H](Cc1c[nH]cn1)C(=O)O` [L-Histidine hydrochloride], 0.189.
Turning to `CC(C[N+](C)(C)C)OC(N)=O` (stereo not drawn) [Bethanechol chloride], the “MBP+ mature oligodendrocyte number” value stood at 0.404 ± 1.
For `COc1ccc(C[C@H](NC(=O)[C@H](C)NC(=O)CN2CCOCC2)C(=O)N[C@@H](Cc2ccccc2)C(=O)[C@@]2(C)CO2)cc1` the value was under -6.35.
In the case of `COc1ccc2c(c1)C(=O)N(CCc1ccc(S(=O)(=O)NC(=O)NC3CCCCC3)cc1)C(=O)C2(C)C` [Gliquidone] it was 1.61; in that of `C=CCc1ccc(O)c(-c2cc(CC=C)ccc2O)c1` [Magnolol], -0.22.
Turning to `NS(=O)(=O)Cc1noc2ccccc12` [Zonisamide], the “MBP+ mature oligodendrocyte number” value came to 0.807.
Regarding `C[C@H](NC[C@H](O)CP(=O)(O)Cc1ccccc1)c1ccc(Cl)c(Cl)c1`, the “MBP+ mature oligodendrocyte number” value is 1.34.
In the case of `CC(=O)c1cc([N+](=O)[O-])c(Sc2ccc(F)cc2F)s1` it was -3.06; in that of `Cc1cn([C@H]2C[C@H](N=[N+]=[N-])[C@@H](CO)O2)c(=O)[nH]c1=O` [3'-Azido-3'-deoxythymidine], -0.472; in that of `Cc1cn([C@H]2C[C@H](N=[N+]=[N-])[C@@H](CO)O2)c(=O)[nH]c1=O` [Zidovudine], -1.56.
Turning to `COc1ccc([C@@H]2Sc3ccccc3N(CCN(C)C)C(=O)[C@@H]2OC(C)=O)cc1` [Diltiazem hydrochloride], the “MBP+ mature oligodendrocyte number” value was -1.59.
For `COc1ccc([C@@H]2Sc3ccccc3N(CCN(C)C)C(=O)[C@@H]2OC(C)=O)cc1` [Diltiazem HCl] the value was -1.01; for `O=C(O)C[C@H](O)C[C@H](O)/C=C/c1c(C2CC2)nc2ccccc2c1-c1ccc(F)cc1` [Pitavastatin Calcium], under -5.15.
For `O=c1[nH]c2cc(Cl)ccc2c(O)c1-c1cccc(Oc2ccccc2)c1` the value was -0.676.
Turning to `Cc1ccc(C)c(OCCCC(C)(C)C(=O)O)c1` [Gemfibrozil], the “MBP+ mature oligodendrocyte number” value was found to be 1.51.
Consider `COc1cc2c(cc1OC)[C@@H]1Cc3ccc(OC)c(OC)c3CN1CC2` [Rotundine], for which the “MBP+ mature oligodendrocyte number” value was 1.12.
For `O=C(CCCN1CCC(O)(c2ccc(Cl)cc2)CC1)c1ccc(F)cc1` [Haloperidol] the value was 2.36 ± 1.1; for `CN1CCC(CNc2ccc3ncc(-c4cccc(OC(F)(F)F)c4)n3n2)CC1` [SGI-1776 free base], under -4.81; for `C[C@H](NC(=O)CCc1nc2ccccc2c(=O)[nH]1)c1ccccc1`, 0.693.
As for `NCC(=O)CCC(=O)O` [5-Aminolevulinic acid HCl], the “MBP+ mature oligodendrocyte number” value came to 0.955.
As to `Cc1ccc(Sc2ccccc2N2CCNCC2)c(C)c1`, the “MBP+ mature oligodendrocyte number” value is -4.64.
In the case of `O=C(O)c1ccc(-n2nc(-c3ccccc3O)nc2-c2ccccc2O)cc1` [Deferasirox] it was 0.0731.
In the case of `CC(N)(Cc1ccc(O)cc1)C(=O)O` (racemic) [DL-alpha-Methyl-p-tyrosine], the “MBP+ mature oligodendrocyte number” value came to 1.37.
In the case of `O=C(NCc1cccc(O)c1)Nc1nc(-c2ccncc2)cs1` it was -4.83; in that of `COC(=O)CCc1ccc(OCC(O)CNC(C)C)cc1` (stereo not drawn) [Esmolol HCl], 1.25.
For `COCCOC(=O)C1=C(C)NC(C)=C(C(=O)OC(C)C)C1c1cccc([N+](=O)[O-])c1` (stereo not drawn) [Nimodipine] the value was 0.263 ± 7.7; for `NCCS` [Cysteamine hydrochloride], -1.15; for `NCCS` [Cysteamine HCl], 1.08.
In the case of `COc1c(C)c2c(c(O)c1C/C=C(\C)CCC(=O)OCCN1CCOCC1)C(=O)OC2` [Mycophenolate Mofetil], the “MBP+ mature oligodendrocyte number” value was under -5.15.
As for `CN1C(C(=O)Nc2ccccn2)=C(O)c2ccccc2S1(=O)=O` [Piroxicam], the “MBP+ mature oligodendrocyte number” value was 0.743 ± 2.6.
In the case of `COC(=O)[C@@H](N)Cc1ccc(O)c(O)c1` [L-3,4-Dihydroxyphenylalanine methyl ester hydrochloride] it was 2.07; in that of `COc1ccc2c(c1)c(CC(=O)O)c(C)n2Cc1ccc(Cl)cc1` [1-(4-Chlorobenzyl)-5-methoxy-2-methylindole-3-acetic acid], -0.119; in that of `CC1(C)CC(=O)c2c(C(F)(F)F)nn(-c3ccc(C(N)=O)c(N[C@H]4CC[C@H](OC(=O)CN)CC4)c3)c2C1`, under -6.01.
In the case of `CC1(C)[C@@H](O)CC[C@]2(C)[C@H]3C(=O)C=C4[C@@H]5C[C@@](C)(C(=O)O)CC[C@]5(C)CC[C@@]4(C)[C@]3(C)CC[C@@H]12` [Enoxolone] it was 2.35; in that of `C[C@H]1COC2(CCN(c3nc(=O)c4cc(C(F)(F)F)cc([N+](=O)[O-])c4s3)CC2)O1` (racemic) [BTZ043 Racemate], 1.24; in that of `O=C1OC(=O)[C@H]2[C@@H]1[C@@H]1CC[C@H]2O1` [Norcantharidin], -2.83.
In the case of `CC(C)n1cnc2c(NCCc3ccc(O)cc3)nc(-c3csc4ccccc34)nc21` [StemRegenin 1 (SR1)] it was under -6.01; in that of `O=C(NNc1ccccc1)c1ccncc1`, 0.992.
For the compound `Cc1cc(F)c(Nc2ncnc3cc(OCc4ccccc4)ccc23)cc1O`, the “MBP+ mature oligodendrocyte number” value is -5.77.
In the case of `CCCCC1(C2CCCC2)Cc2cc(OCC(=O)O)c(Cl)c(Cl)c2C1=O` (stereo in doubt) [R(+)-Butylindazone] it was 0.712.
With `Cn1cncc1[C@@](N)(c1ccc(Cl)cc1)c1ccc2c(c1)c(-c1cccc(Cl)c1)cc(=O)n2C` [Tipifarnib], the “MBP+ mature oligodendrocyte number” value was under -6.7.
For `Cc1nnc(SCC2=C(C(=O)O)N3C(=O)[C@@H](NC(=O)Cn4cnnn4)[C@H]3SC2)s1` [Cefazolin sodium] the value was -0.865.
In the case of `Cc1cc(C#N)cc(C)c1Oc1nc(Nc2ccc(C#N)cc2)nc(N)c1Br` [Etravirine (TMC125)] it was 4.23; in that of `Nc1nc2c(ncn2[C@@H]2O[C@H](CO)[C@@H](O)[C@@H]2O)c(=O)[nH]1` [Ara-G hydrate], -0.925.
For `O=c1[nH]c(=O)n([C@H]2C[C@H](O)[C@@H](CO)O2)cc1C(F)(F)F` [Trifluridine] the value was under -5.15.
Take `S=c1[nH]cnc2nc[nH]c12` [Mercaptopurine (6-MP)]: the “MBP+ mature oligodendrocyte number” value was -2.86.
For `NS(=O)(=O)c1ccc(NC(=O)Nc2ccc(F)cc2)cc1` the value was 1.29; for `Cc1ccccc1C(=O)Nc1ccc(C(=O)N2CCCC(N(C)C)c3ccccc32)cc1` (stereo not drawn) [Mozavaptan], 3.04.
